The whole screen tested about 45,000 compounds, of which about 65 (0.1%) were called active. The call rests on the fitted dose curve; in most records, active means well fitted activation curve with a large enough effect; inconclusive means small, poorly fitted or top-dose-only effect; inactive means no such curve, though single readings can be large or run the other way. The list shows a part of the results.
molecular target: Galactocerebrosidase (Homo sapiens) (UniProt P54803); assay: A Novel Cell-Based Assay to Identify Small Molecules for B -Galactocerebrosidase; conditions: 145M-Twi-hGALC-G270D cells (Twitcher mouse brain line with human GALC G270D), HMU-beta-Gal fluorescence, 48 h; series mostly up to 57.5 µM; activation: at the top concentration; further: 0% is about no effect; nearly all actives have a fitted effect of over 65% in size
Outline: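 Live 145M-Twi cells (Twitcher mouse brain-derived, GALC-null) stably expressing human GALC-G270D, with a wild-type GALC line, were compound-treated. Residual GALC activity was then read as fluorescence from 0.1 mM final HMU-β-gal at pH 5.2; higher signal means activation.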

UniProt P54803, sequence (P54803 whole entry, looked up): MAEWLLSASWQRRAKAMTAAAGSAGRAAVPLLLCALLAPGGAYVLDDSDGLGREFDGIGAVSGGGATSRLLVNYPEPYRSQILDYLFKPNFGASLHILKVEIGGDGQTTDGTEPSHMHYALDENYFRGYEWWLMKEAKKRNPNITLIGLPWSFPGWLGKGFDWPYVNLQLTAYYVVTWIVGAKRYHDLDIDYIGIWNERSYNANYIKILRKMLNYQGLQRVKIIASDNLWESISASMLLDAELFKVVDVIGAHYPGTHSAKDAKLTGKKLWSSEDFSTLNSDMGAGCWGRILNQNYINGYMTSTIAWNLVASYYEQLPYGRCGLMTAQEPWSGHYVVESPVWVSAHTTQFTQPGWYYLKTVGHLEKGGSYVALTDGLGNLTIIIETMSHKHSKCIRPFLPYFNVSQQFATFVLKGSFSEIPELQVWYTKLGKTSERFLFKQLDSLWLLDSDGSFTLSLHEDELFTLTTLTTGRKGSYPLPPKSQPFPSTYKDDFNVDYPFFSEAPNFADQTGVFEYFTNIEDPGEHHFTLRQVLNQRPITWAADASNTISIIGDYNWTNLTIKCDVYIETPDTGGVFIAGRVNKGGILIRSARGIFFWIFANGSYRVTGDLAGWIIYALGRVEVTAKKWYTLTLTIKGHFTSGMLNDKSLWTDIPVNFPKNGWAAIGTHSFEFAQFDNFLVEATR

activation, inactive:
COc1ccc(-c2cn3c(n2)sc2cc(C(=O)NCC(C)c4ccccc4)ccc23)cc1 (centres undefined) -8.47%
CCOC(=O)N1CCN(Cc2nc3cc(NC(=O)c4ccc(F)cc4)ccc3n2C(C)C)CC1 -28.7%
Cc1ccc(CCNC(=O)c2cnc3c(C)cccn3c2=O)cc1 1.1%
Cc1c(Cl)cccc1NC(=O)Nc1nnc(N(C)C2CCCCC2)s1 -11.8%
CC(=O)Nc1ccc(NC(=O)C(NC(=O)C2CCC(C)CC2)C(C)C)cc1 (centres undefined) -11.4%
CCS(=O)(=O)n1nc(-c2ccco2)nc1NCc1ccc(C(C)C)cc1 -18.3%
CC(C)c1cc(C(=O)NCc2ccc(F)cc2)no1 -9.22%
CCc1ccccc1NC(=O)c1nn(-c2ccc(C)cc2)c(=O)c2c1c1ccccc1n2C -13.9%
CCc1ccc(Cn2nnc3c(=O)[nH]c(C4CCCN(C(=O)c5cccc(Cl)c5)C4)nc32)cc1 (centres undefined) 1.72%
O=C(Nc1ccc(F)cc1)c1ccc(CN2CC(=O)N3CCCCC3C2=O)cc1 (centres undefined) -10.3%
COc1ccc(C)cc1NC(=O)C1CCC(CNS(=O)(=O)c2ccc3c(c2)CCCC(=O)N3)CC1 (centres undefined) 0.899%
Cc1ccc(-n2cnc3cc(C(=O)NC4CCCCCC4)ccc32)c(C)c1 -17.6%
CCCOc1cccc(C2c3c(oc4ccc(F)cc4c3=O)C(=O)N2CCCN2CCOCC2)c1 (centres undefined) 2.2%
Cc1ccc(CN(Cc2ccco2)C(=O)c2ccccc2Br)o1 2.7%
Cc1ccc(S(=O)(=O)c2nnn3c2nc(NC2CCCCCC2)c2sccc23)cc1C -7.63%
CC(C)c1nn2c(=O)cc(COC(=O)C3CCCCC3)nc2s1 -10.9%
Cc1cc(Br)cc(C)c1NC(=O)c1sc2ncn(Cc3cccc(F)c3)c(=O)c2c1C -5.72%
CC1CCN(C(=O)c2cc3c(=O)n(C)c4cc(Cl)ccc4c3s2)CC1 -12.4%
Cc1nc(-c2ccc(S(=O)(=O)N3CCN(c4cccc(C(F)(F)F)c4)CC3)cc2)co1 -13.7%
CCCOc1ccc(-c2nonc2NC(=O)c2ccco2)cc1OCCC 0.953%
COc1cccc(-c2csc(-c3c(N)c(C(=O)c4ccc5c(c4)OCO5)n4ccccc34)n2)c1 -12.9%
CCOc1ccc(C2C(C(=O)Nc3ccccc3)=C(C)Nc3nc(-c4ccccc4)nn32)cc1OC (centres undefined) -4.42%
O=C(Cn1c(-c2cccs2)cc2ccccc21)N1CCN(c2ccc(Cl)cc2)CC1 -8.5%
Cc1ccc(S(=O)(=O)NC(=O)NN2CCCCCC2)cc1 -16.7%
Cc1ccc(NC(=O)Cn2c(=O)c3ccc(Cl)cc3n3nncc23)cc1 1.83%
CCNC(=O)c1ccc(C)c(-n2c(C)nc3cccnc32)c1 0.843%
COc1ccc(OC)c(NC(=O)C(C)n2c(=O)cc(C)c3c(C)nn(-c4ccccc4)c32)c1 (centres undefined) -11.2%
Cc1cc(C)n(CCc2nc3c4ccccc4nc(SCc4ccc(F)cc4)n3n2)n1 -1.55%
Cc1ccc(CNC(=O)c2c[nH]c3ccc(S(=O)(=O)N4CCOCC4)cc3c2=O)cc1 -21%
O=c1c2cnn(-c3ccc(F)cc3)c2ncn1Cc1ccccc1Cl -9.41%
COc1ccc(-c2cn3c(n2)sc2cc(C(=O)NCCC4=CCCCC4)ccc23)cc1 -11.6%
CC(=O)c1ccc(S(=O)(=O)Nc2ccc(-c3cn4c(C)csc4n3)cc2)cc1 7.91%
COc1ccc(C)cc1NC(c1nnc(-c2ccccc2)o1)c1ccc(F)cc1Cl (centres undefined) -12.8%
CCOC(=O)c1c(NC(=O)c2ccc(C)cc2)sc2c1CCCCC2 -8.94%
N#Cc1ccccc1NC(=O)CSc1nc(-c2ccccc2)cc(C(F)(F)F)c1C#N -3.77%
CCc1ccc(N2CC(c3nnc(NC(=O)c4ccco4)s3)CC2=O)cc1 (centres undefined) -16.8%
Cc1c(C(=O)Nc2ccc(F)cc2F)oc2c1-c1nn(Cc3c(F)cccc3Cl)cc1CC2 -13.8%
Cc1ccc(Cc2cnc(NC(=O)c3ccc4c(c3)CC(c3ccccc3)OC4=O)s2)cc1 (centres undefined) -16.1%
O=C(NC1CC(=O)N(c2ccc(F)cc2)C1)C1CCCC1 (centres undefined) -3.32%
Cc1ccc(Nc2nc(-c3ccccc3)nc3ccccc23)cc1 -22.4%
COc1cc(Cl)c(C)cc1NC(=O)c1cc(S(=O)(=O)N2CCCC2)ccc1F -11.4%
Cc1cc(NC(=O)c2ccccc2F)ccc1-c1nc2ccccc2s1 -15.2%
COc1ccc(C(=O)N2CC(=O)Nc3ccc(Br)cc3C2c2ccc(F)cc2)cc1OC (centres undefined) -19.5%
CCc1ccc(NC(=O)c2sc(-n3nc(C)c(CCC(C)C)c3C)nc2C)cc1 -1.73%
Cc1cccc(C)c1OCC(=O)N(Cc1ccccc1F)C1CCS(=O)(=O)C1 (centres undefined) -21.2%
COc1ccc(NC(=O)c2ccc3oc(=O)c(S(=O)(=O)c4ccc(F)cc4)cc3c2)cc1OC -17.9%
CCOC(=O)Cc1ccc(NC(=O)N(Cc2ccc(OC)cc2)C2CCN(C(C)=O)CC2)cc1 -9.36%
CCOC(=O)c1c(NC(=O)/C(C#N)=C/c2ccc(OC)cc2)sc2c1CCC2 -9.56%
O=C(Nc1ccccc1-c1nc2ccccc2s1)c1ccc(F)cc1 -6.08%
Clc1ccc(-c2cc3ncc4c(n3n2)-c2ccccc2OC4)cc1 -7.19%
COc1ccc(CCNc2nc3c(-c4cccc(C(F)(F)F)c4)nnn3c3ccccc23)cc1OC -10.8%
Cc1ccc(CN2CCCn3nc(C(=O)NCc4ccc(N(C)C)cc4)cc3C2=O)cc1 -9.3%
CCOc1ccc(NC(=O)c2cc3cc(C)ccc3n2C)cc1 -14.9%
CC(C)CNC(=O)Nc1cc(C(=O)NCc2ccc(C(C)C)cc2)ccc1N1CCCC1 -2.6%
CCC(=O)N1CCc2cc(S(=O)(=O)NCCC(=O)Nc3ccc(CC)cc3)ccc21 -19.6%
CC1CCN(c2nc(-c3ccc(C(C)(C)C)cc3)nc3ccccc23)CC1 -10.6%
O=C(CSc1nc2ccsc2c(=O)n1-c1ccc(Cl)cc1)NCc1ccc(Cl)cc1 -8.95%
CCOc1ccc2nc(N3CCCC(C(=O)Nc4ccc(OC)cc4)C3)sc2c1 (centres undefined) -14.2%
O=C(CC1N=C2c3ccccc3N=C(SCC(=O)Nc3ccc(F)cc3)N2C1=O)NCc1ccco1 (centres undefined) -22%
COc1ccc(CCNC(=O)c2c(O)nc3ccccn3c2=O)cc1OC -6.25%
COc1ccccc1NC(=O)CSc1oc(-c2ccco2)nc1S(=O)(=O)c1ccc(C)cc1 -5.28%
CCOc1ccc(NC(=O)c2oc3ccccc3c2NC(=O)C(C)(C)C)cc1 1.67%
CCc1nn2c(=O)cc(COC(=O)c3ccc(NC(=O)COc4ccccc4C)cc3)nc2s1 -16.6%
COc1ccc(NC(=O)c2csnn2)cc1Cl -24.2%
COc1cc(Nc2ncc3c(n2)CCN(Cc2ccc(OC(C)C)c(OC)c2)C3)cc(OC)c1 -35%
Cc1ccc(C(=O)Nc2nnc(S(=O)(=O)N(C)Cc3ccc(Cl)cc3)s2)cc1 -10.5%
COc1ccc(NC(=O)C2CCN(C3=NS(=O)(=O)C(c4ccc(C)c(C)c4)=C3C)CC2)c(OC)c1 -17.4%
Cc1ccccc1OC(=O)c1cc(-c2ccc3c(c2)OCCO3)on1 -15.5%
O=C(c1noc2c1CCCCC2)N1CCN(c2cccc(Cl)c2)CC1 -9.5%
CCN1CCN(c2nnc(-n3cccc3C(=O)NCc3ccccc3OC)s2)CC1 -21.4%
O=C(Cn1ncc2c3ccccc3n(Cc3ccccc3F)c2c1=O)N1CCCCCC1 -10.4%
Cc1ccc(NC(=O)N2CC3CCCN3c3ccccc32)cc1Cl (centres undefined) -15.9%
CCc1ccccc1NC(=O)Cn1nnc2sc3c(c2c1=O)CCC(C(C)(C)C)C3 (centres undefined) -0.75%
O=C(c1cc2ccc3cccnc3c2[nH]1)N1CCCCC1 -10.5%
COc1ccc(C)cc1NS(=O)(=O)c1cnc(N)nc1 -11.6%
COc1cccc(CNC(=O)C2CCN(S(=O)(=O)c3c(C)noc3/C=C/c3cccs3)CC2)c1 -0.261%
O=C(NCCc1csc(-c2cccc(F)c2)n1)C(=O)Nc1cc(F)ccc1F -25.6%
Cc1ccc(C)c(NC(=O)Cc2coc3cc(C)cc(C)c23)c1 -14.1%
CC(=O)Nc1cccc(NC(=O)CSc2nccn2Cc2ccc3c(c2)OCO3)c1 -24.1%
Cc1cccc(NC(=O)CSc2ccc(-c3sc(-c4ccccc4)nc3C)nn2)c1C -15.1%
CC(=O)c1ccc(N2CCN(C(=O)c3cc(S(=O)(=O)N4CCCCCC4)cn3C)CC2)cc1 -1.68%
CCOC(=O)c1sc2ncn(CC(=O)Nc3cc(Cl)ccc3C)c(=O)c2c1C -13.2%
CCOC(=O)c1cc2c(=O)n3ccccc3nc2n(CC2CCCO2)c1=NC(=O)c1ccccc1Br (centres undefined) -16.4%
O=C(OCc1cc(=O)n2nc(-c3cccs3)sc2n1)c1cccc(F)c1 -0.361%
CC(C)CCN(C(=O)Nc1ccc(Cl)c(Cl)c1)C1CCN(C(C)C)CC1 -11.6%
COCCCNC(=O)c1ccc(Cn2c(SCc3ccc(F)cc3)nc3cccnc32)cc1 -46.5%
Cc1cc(C(=O)Nc2c(C)cccc2C)n(-c2ccccc2)n1 -9.27%
COCCn1c(=O)[nH]c2cc(C(=O)Nc3ccc(OC)cc3)ccc2c1=O -15.6%
CCOc1ccc(CNC(=O)c2ccc3c(c2)nc2n3CCCCC2)cc1 -30.9%
COc1ccc(C(=O)Nc2ccc3oc(-c4cccnc4)nc3c2)cc1OC -20.4%
CCCCNc1c(C(=O)OCC)c(C)nc2c1cnn2CC -18.4%
COc1ccc(CCNC(=O)c2cc(=O)c3ccc(C)cc3o2)cc1OC -29.9%
CCCCCn1c(=O)[nH]c2cc(C(=O)NC(C)CC)ccc2c1=O (centres undefined) -9.83%
CC(C)(C)c1ccc(OCCOCCn2c(-c3ccc(Cl)cc3)nc3ccccc3c2=O)cc1 -3.05%
O=C(COC(=O)c1cccc(NC(=O)c2ccc(Br)cc2)c1)c1ccc(Cl)cc1 -9.62%
Cc1cccc(Cn2c(COc3ccccc3)nc3ccccc32)c1 -4.83%
CCn1c2ccccc2c2cc(NC(=O)COc3cc(C)ccc3C)ccc21 -20%
CCc1cnc2c(c1SCC(=O)Nc1ccc(C(=O)OC)cc1)c(=O)n(C)c(=O)n2C -9.75%
Cc1ccc2c(c1)cc(C(=O)NCc1ccccc1C)n2C -7.37%
